# Values joined by “and” are separate entries in the source; they are usually repeats but may differ in a detail not shown here. Equal entries are not always repeated. The whole screen tested about 110,000 compounds, of which about 230 (0.21%) showed an effect of 50% or more. The list shows a part of the results.
# Target: DPAP1 (Plasmodium falciparum, UniProt Q8IIJ9)
# Test: primary screen, percent inhibition; read by cleavage of a fluorogenic dipeptide substrate; higher = more effect of the substance
# Design: species or system P. falciparum D10 trophozoite lysates; single well
# 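Note: 30 min substrate incubation versus DMSO and 10 µM JCP410 controls.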
# Chain of DPAP1 (Q8IIJ9 whole entry, looked up): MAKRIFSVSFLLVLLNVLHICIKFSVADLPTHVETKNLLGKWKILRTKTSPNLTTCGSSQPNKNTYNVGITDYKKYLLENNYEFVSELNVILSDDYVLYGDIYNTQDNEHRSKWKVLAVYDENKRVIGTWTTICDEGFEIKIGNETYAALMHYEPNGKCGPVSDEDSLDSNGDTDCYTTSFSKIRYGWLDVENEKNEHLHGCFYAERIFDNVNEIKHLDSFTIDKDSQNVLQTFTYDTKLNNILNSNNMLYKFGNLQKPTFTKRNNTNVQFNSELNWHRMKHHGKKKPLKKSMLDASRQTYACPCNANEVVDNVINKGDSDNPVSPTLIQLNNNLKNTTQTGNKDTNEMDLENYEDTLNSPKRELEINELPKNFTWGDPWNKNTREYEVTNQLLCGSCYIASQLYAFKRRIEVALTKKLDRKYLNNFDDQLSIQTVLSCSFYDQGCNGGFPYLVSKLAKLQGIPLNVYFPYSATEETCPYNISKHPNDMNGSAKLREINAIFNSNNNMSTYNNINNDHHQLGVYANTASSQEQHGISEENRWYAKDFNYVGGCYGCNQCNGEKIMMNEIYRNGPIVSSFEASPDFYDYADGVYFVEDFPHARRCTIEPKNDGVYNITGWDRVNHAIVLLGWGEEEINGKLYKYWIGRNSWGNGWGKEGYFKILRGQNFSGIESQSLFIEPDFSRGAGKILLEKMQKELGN
row,SMILES,% Inhibition @ 10 uM
1,COc1ccc(-c2[nH]nc3c2C(=O)CC(C)(C)C3)cc1,0.275%
2,Cc1cccc2c1-c1sc(C(=O)NCCc3ccc(S(N)(=O)=O)cc3)cc1CO2,0.291%
3,CC(C)COc1ccc(/C(=N\O)c2ccccc2)cc1,1.33%
4,CCCCc1[nH]nc2c1/C(=N\OCC)CC(C)(C)C2,0.878%
5,CCc1nn(C(CC)C(=O)NCc2cccc(OC)c2)c(=O)c2cc3oc(C)cc3n12 (stereo not drawn),1.8%
6,O=C(Nc1nc(-c2ccccc2)cs1)c1cccc(Cl)c1,-2.32%
7,O=C(NC1CCCc2ccccc21)C1CCN(c2c(N3CCCC3)c(=O)c2=O)CC1 (stereo not drawn),3.07%
8,COc1ccc(OC)c(CCNCc2c(C(=O)O)c(C)n(Cc3c(F)cccc3Cl)c2C)c1,-0.23%
9,Cc1scc(C(=O)c2csc(C)c2C)c1C,-8.59%
10,COc1ccccc1N1CCN(C(=O)CN(C2CCCCC2)S(=O)(=O)c2ccccc2)CC1,-12.7%
11,CC(C)C(C)(O)C#CCN1CCOCC1 (stereo not drawn),2.13%
12,CC(CCc1ccccc1)NC(=O)C1CCN(c2nnc(N3CCCC3=O)s2)CC1 (stereo not drawn),-4.68%
13,Fc1ccc(CN2CCN(c3ncccn3)CC2)cc1Br,2.23%
14,COc1ccccc1Cn1ccn(CC(=O)c2ccc(F)cc2)c(=O)c1=O,-3.8%
15,CCCCN(CC)c1cnn(-c2ccccc2)c(=O)c1N,0.215% and -2.54%
16,O=C(O)/C=C/C(=O)Nc1cccnc1,-0.127%
17,N#Cc1c(NC(=O)CSc2n[nH]c(-c3ccncc3)n2)sc2c1CCCC2,0.9%
18,COc1cc(C2C(C#N)=C(N)Oc3[nH]nc(-c4ccccc4)c32)cc2c1OCO2 (stereo not drawn),-2.77%
19,O=C(N/C(=C/c1cccc2ccccc12)C(=O)N1CCCCC1)c1ccccc1,0.687%
20,Cc1[nH]c2ccc(C(=O)O)cc2c1CCN,-4.24%
21,NC1=NC(=O)/C(=C/c2ccc(-c3cccc(Cl)c3)o2)S1,6.24%
22,CCC(=O)c1cn(CC(=O)N2CCc3ccccc3C2)c2ccccc12,-6.94%
23,Cc1ccccc1Cc1c(C)nc2nc(SCC(=O)N3CCC4(CC3)OCCO4)nn2c1C,5.4%
24,Cc1ccc2nc(N(CCCN(C)C)C(=O)c3nc4ccccc4s3)sc2c1,6.08%
25,CCOC(=O)c1ccc(-c2ccc(/C=C3\C(=N)N4N=C(S(C)(=O)=O)SC4=NC3=O)o2)cc1,-7.21%
26,CCOC(=O)c1c(N2CCOCC2)cc(C)nc1C,-2.42%

row,SMILES,% Inhibition @ 10 uM
1,CN1C(=O)c2ccc(NC(=O)COc3ccc(Br)cc3)cc2C1=O,1.19%
2,CCS(=O)(=O)c1nc(S(=O)(=O)c2ccc(C)cc2)c(NCCCN2CCCC2=O)s1,-4.04%
3,O=S(=O)(NC1CCCCC1NC1CCCCC1)c1ccccc1 (stereo not drawn),-0.551%
4,Cc1cccc(NC(=O)c2sc3nc4c(cc3c2N)CCC4)c1C,2.65%
5,CN1CCN(Cc2ccc(Cl)cc2)CC1,-5.57%
6,Cc1nc2ccc(S(=O)(=O)NCC(=O)NCc3ccccn3)cc2s1,-2.45%
7,O=C(CCn1c(=O)c2sccc2n(CC(=O)NCCC2=CCCCC2)c1=O)NCc1ccccc1,-1.84%
8,COc1ccc(S(=O)(=O)N2CC(C)N(S(=O)(=O)c3ccc(OC)cc3)CC2C)cc1 (stereo not drawn),2.42%
9,COc1ccccc1OC(CCN1CCN(C)CC1)c1ccccc1 (stereo not drawn),-2.29%
10,O=c1sc2ccccc2n1Cc1cccc2ccccc12,-3.04%
11,CN1CCCC1CCNC1CCC(c2ccccc2)CC1 (stereo not drawn),-6.82%
12,c1ccc(OCCCCCCN2CCNCC2)cc1,7.67%
13,Cc1nnc(SCC(=O)NCc2ccccn2)c2nn(-c3ccccc3)c(C)c12,1.4%
14,Cc1cc(C)c(S(=O)(=O)Nc2ccc(C)c(Cl)c2)c(C)c1,-3.04%
15,c1nc(NCc2ccc3c(c2)OCO3)c2nc3n(c2n1)CCCCC3,-3.77%
16,CCCCNC(=O)CS(=O)Cc1nc(-c2cccs2)oc1C (stereo not drawn),1.55%
17,COCCC/N=C/C1=C(O)CC(C)(C)CC1=O,5.91%
18,N#Cc1c(/N=C/C2C(=O)c3ccccc3C2=O)sc2c1CCCC2,6.82%
19,CCc1ccc(C2NC(=O)c3[nH]nc(-c4cccs4)c32)cc1 (stereo not drawn),-1.54%
20,O=C1C2=C(SCCS2)C(=O)N1c1ccccc1,0.0792%
21,Fc1cccc(CN2CCN(c3ncccn3)CC2)c1,-5.57%
22,COc1cc2c(cc1OC)C(c1ccccc1)N(C(=O)CSc1nc3ccccc3o1)CC2 (stereo not drawn),7.02%
23,CCOC(=O)C1=C(C)OC(N)=C(C#N)C1c1cnn(C)c1 (stereo not drawn),1.76%
24,O=C(CSc1nnc(COc2ccccc2)n1-c1ccccc1)NC1CCCCC1,3.81%
25,N#CCNC(=O)[C@H](CC1CCCCC1)OC(=O)N1CC[C@@H](O)C1,-0.207%

# Source: publication PMC6919601, “Identification of Plasmodium dipeptidyl aminopeptidase allosteric inhibitors by high throughput screening” (PLoS ONE, 2019)
